Test results: PubChem BioAssay AID720708 (National Center for Advancing Translational Sciences (NCATS), 2013)
The campaign covered roughly 360,000 compounds. About 660 (0.18%) were called active. The shares of active, inactive and inconclusive entries below differ from those in the screen. Calls come from the whole dose curve; as a rule, active = well fitted inhibition curve with a large enough effect; inconclusive = small, poorly fitted or top-dose-only effect; inactive = no such curve, though single readings can be large or run the other way. Potencies of inconclusive entries are left out as doubtful fits.

These compounds were tested against Rap guanine nucleotide exchange factor 4 (Homo sapiens) (UniProt Q8WZA2) (assay: qHTS for Antagonist of cAMP-regulated guanine nucleotide exchange factor 2 (EPAC2): primary screen). Details: EPAC2 GEF exchange of Rap1B-BODIPY-GDP, fluorescence; activity, negative = inhibition: at 114 µM (top of the series) unless noted.
% is set by controls: 0 for no effect and ±100 for the full control effect; potency is the fitted concentration of half-maximal effect; tags give direction and shape of the fitted curve.
Note: nearly all actives have a fitted effect of over 45% in size.

Chain of UniProt Q8WZA2 (Q8WZA2 whole entry, looked up): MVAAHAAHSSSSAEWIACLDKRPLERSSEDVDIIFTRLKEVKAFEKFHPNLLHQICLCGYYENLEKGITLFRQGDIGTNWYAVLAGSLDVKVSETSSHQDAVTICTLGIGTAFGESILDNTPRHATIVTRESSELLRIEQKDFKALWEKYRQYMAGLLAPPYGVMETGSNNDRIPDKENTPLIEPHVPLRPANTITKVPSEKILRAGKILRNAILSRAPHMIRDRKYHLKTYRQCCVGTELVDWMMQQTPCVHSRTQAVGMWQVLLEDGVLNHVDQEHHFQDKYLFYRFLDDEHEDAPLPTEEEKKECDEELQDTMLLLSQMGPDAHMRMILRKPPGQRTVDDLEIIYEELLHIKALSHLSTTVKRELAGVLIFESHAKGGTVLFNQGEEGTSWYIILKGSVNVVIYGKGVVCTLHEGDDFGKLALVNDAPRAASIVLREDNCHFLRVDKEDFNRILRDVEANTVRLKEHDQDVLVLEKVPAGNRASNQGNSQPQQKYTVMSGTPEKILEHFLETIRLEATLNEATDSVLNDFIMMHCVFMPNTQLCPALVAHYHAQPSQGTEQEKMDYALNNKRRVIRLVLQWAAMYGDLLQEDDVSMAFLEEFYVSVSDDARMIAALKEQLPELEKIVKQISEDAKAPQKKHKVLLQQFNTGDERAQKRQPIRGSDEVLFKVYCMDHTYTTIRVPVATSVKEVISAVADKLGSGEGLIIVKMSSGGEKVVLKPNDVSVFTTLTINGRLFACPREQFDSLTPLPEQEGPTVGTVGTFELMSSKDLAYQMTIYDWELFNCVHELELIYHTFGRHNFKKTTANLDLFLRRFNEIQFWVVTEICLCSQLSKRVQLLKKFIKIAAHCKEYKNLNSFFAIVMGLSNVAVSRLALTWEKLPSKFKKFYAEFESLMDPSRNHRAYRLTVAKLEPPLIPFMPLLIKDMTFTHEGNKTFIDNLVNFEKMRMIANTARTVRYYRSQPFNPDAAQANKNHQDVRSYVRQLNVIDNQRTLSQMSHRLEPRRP

Compound	activity, negative = inhibition	Potency
O=C(c1cccc2ccccc12)N1CCN(Cc2ccccc2F)CC1	inactive: -0.755%	–
COc1cc2c(cc1OC)CN(C(=O)c1ccc(-c3ccccc3)cc1)CC2	–	inconclusive [inhibitor, partial curve]
Cc1ccc(N(Cc2ccccc2)C(=O)c2ccc(F)cc2)cc1	–	inconclusive [inhibitor, partial curve]
CCCCc1cc(=O)oc2cc(C)cc(OCC(=O)N[C@@H](CSCc3ccccc3)C(=O)O)c12	–	inconclusive [inhibitor, partial curve, poor fit]
COc1cccc(-c2ccc3c(c2)O[C@H](CN(C)C(=O)c2ccccc2F)[C@H](C)CN([C@H](C)CO)S3(=O)=O)c1	–	inconclusive [inhibitor, full curve]
COc1ccc(Cl)cc1-c1n[nH]c(=S)n1Cc1ccccc1	–	inconclusive [inhibitor, partial curve]
CC1CCN(Cc2cc(=O)oc3ccc4ccccc4c23)CC1	–	inconclusive [inhibitor, partial curve]
CC1CCCN(c2nc3ccccc3nc2C(C#N)S(=O)(=O)c2ccccc2)C1 (configuration not stated)	inactive: 128%	–
CCCCn1c2c(c(=O)n(C)c1=O)C(c1ccc(OC)cc1)N1CCCCCC1=N2 (configuration not stated)	–	inconclusive [inhibitor, partial curve]
C[C@H](CO)N1C[C@H](C)[C@@H](CN(C)Cc2ccc(Cl)c(Cl)c2)Oc2c(NC(=O)CCC(F)(F)F)cccc2C1=O	–	inconclusive [inhibitor, full curve]
O=c1c(Cl)c(Cl)cnn1Cc1nnc(-c2ccccc2Br)o1	–	inconclusive [inhibitor, partial curve]
COc1cc(Cl)c(C)cc1N1C(=O)CN(Cc2ccccc2)C1=S	–	inconclusive [inhibitor, single point]
COc1ccccc1Nc1nc2ccc(C)cc2cc1C#N	–	inconclusive [inhibitor, single point]
Cc1cccc(OCC(=O)Nc2nnc(S(=O)(=O)N3CCCCCC3)s2)c1	inactive: -13.5%	–
NC(=O)c1sc(=S)n2c1[nH]c(=O)c1sccc12	–	active: 39.8 µM
Cc1oc(-c2ccc(Cl)cc2)nc1CN1CCC(C(=O)NCCCN2CCOCC2)CC1	inactive: 21.1%	–
CC(C)(C)N1C(=O)c2ccccc2NC(=O)C1C(=O)NCCc1ccccc1 (configuration not stated)	–	inconclusive [inhibitor, single point]
CN(Cc1ccccc1F)C(=O)c1ccccc1Sc1ccccc1C#N	–	inconclusive [inhibitor, partial curve]
Cc1cccc(-c2nc(C#N)c(NC3CCCCC3)o2)c1	inactive: 5.77%	–
NS(=O)(=O)c1cccc2cccnc12	inactive: 2%	–
CCCCC[C@@H]1C=C(C(=O)O)[C@H](c2cccc(C)c2)N1S(=O)(=O)c1ccc(C)cc1	–	inconclusive [inhibitor, partial curve]
Cc1[nH]c2ccccc2c1C(=O)c1cc(Cc2ccccc2)sc1N	–	inconclusive [inhibitor, full curve]
O=c1[nH]cnc(O)c1C(c1ccc(F)cc1)c1c(O)nc[nH]c1=O	inactive: 3.99%	–

Compound	activity, negative = inhibition	Potency
CCN1CCN(CCNC(=O)c2ccc(/C=C3/Sc4ccccc4N(Cc4cccc(C)c4)C3=O)cc2)CC1	–	inconclusive [inhibitor, partial curve]
CCOc1cc(/C=C2\CN(C)C/C(=C\c3ccc(O)c(OCC)c3)C2=O)ccc1O	inactive: 5.97%	–
COc1cc(C(F)(F)F)c(C(=O)N(C)Cc2cc(Cl)cc(Cl)c2)cn1	–	inconclusive [inhibitor, full curve, poor fit]
CN[C@@H](CO)C(=O)NC[C@H]1O[C@@H](n2cnc3c(N)ncnc32)[C@H](O)[C@@H]1O	–	inconclusive [inhibitor, single point]
COc1cc(/C=C2/SC(=S)N(CC(=O)O)C2=O)ccc1OC(=O)c1cccs1	–	inconclusive [inhibitor, full curve]
COc1ccc2nc(SCC(C)=O)c(C#N)cc2c1	–	inconclusive [inhibitor, partial curve]
CCCCN(CCCC)Cc1cc(=O)oc2cc(OC)c(Cl)cc12	–	inconclusive [inhibitor, partial curve]
Cc1nn(-c2ccccc2)c(Cl)c1/C=C1\SC(=S)NC1=O	–	inconclusive [inhibitor, partial curve]
Cc1ccccc1C(=O)c1cccn1CC(=O)NC(C)CCc1ccccc1 (configuration not stated)	–	inconclusive [inhibitor, partial curve]
CCS(=O)(=O)C1=NSC2=NC(=O)/C(=C\c3ccc(OS(=O)(=O)c4ccccc4)c(OC)c3)C(=N)N21	–	inconclusive [inhibitor, partial curve]
OCC1(CC2CCCCO2)CCN(Cc2ccccc2-c2ccco2)CC1 (configuration not stated)	–	inconclusive [inhibitor, single point]
CCC(=O)NC(c1ccccc1OC)c1ccc2cccnc2c1O (configuration not stated)	inactive: 3.17%	–
O=C(NCCc1ccccc1)c1ccc2c(=O)[nH]c3c(C(=O)NCC4CCCO4)sc(=S)n3c2c1 (configuration not stated)	–	inconclusive [inhibitor, partial curve]
Cc1nn(-c2ccccc2)cc1C(c1c(N)[nH]c(=S)[nH]c1=O)c1c(N)[nH]c(=S)[nH]c1=O	inactive: 3.4%	–
CCc1nnc(NS(=O)(=O)c2ccc(Nc3ccc([N+](=O)[O-])c4nonc34)cc2)s1	–	inconclusive [inhibitor, partial curve]
O=c1c2ccccc2cnn1Cc1cccc(Br)c1	–	inconclusive [inhibitor, partial curve, poor fit]
C/C(Cc1ccccc1)=N\NC(=O)c1ccccn1	inactive: -3.99%	–
CC1(C)OCC(C2CC(c3ccccc3)NS(=O)(=O)O2)O1 (configuration not stated)	–	inconclusive [inhibitor, single point]
CC(NC(=O)COc1ccccc1-c1ccccc1)c1ccccc1 (configuration not stated)	–	active: 39.8 µM
Cc1cc(Cn2nc(C(=O)NCc3cccc(Br)c3)cc2-c2ccccc2)on1	–	inconclusive [inhibitor, single point]
COC(=O)c1ccsc1NC(=O)CSc1nnnn1-c1ccccc1SC	inactive: 4.79%	–
Cc1ccc(Cn2ccnc2C(=O)Nc2ccccc2)cc1	inactive: -11.4%	–
CCOC(=O)c1cc2c(=O)c3ccccc3oc2nc1C	inactive: 3.17%	–

Compound	activity, negative = inhibition	Potency
CC(=O)Nc1ccc(/C=N/NC(=O)CC2CCCCC2)cc1	–	inconclusive [inhibitor, single point]
O=[N+]([O-])c1ccc(CSc2nc3ccccc3o2)cc1	–	inconclusive [inhibitor, single point]
COC(=O)Cc1ccc(N(Cc2ccccc2F)S(=O)(=O)c2ccc(Br)cc2)cc1	inactive: -3.01% [at 57.1 µM]	–
O=P(Cc1cccc2ccccc12)(c1ccccc1)c1ccccc1	–	inconclusive [inhibitor, partial curve]
COc1ccc(-c2cccc3c2C2CC3CCN2C(=O)OCc2ccccc2)cc1 (configuration not stated)	–	inconclusive [inhibitor, partial curve]
Cc1ccc2c(c1)C(SCC(=O)NCCc1ccccc1)CC1(CCCC1)O2 (configuration not stated)	–	inconclusive [inhibitor, partial curve]
Cc1ccc(S(=O)(=O)/N=C2/NC(=O)/C(=C\c3ccccc3)S2)cc1	–	inconclusive [inhibitor, single point]
O=C(O)c1cnn(-c2nc(-c3ccc(Br)cc3)cs2)c1C(F)(F)F	–	inconclusive [inhibitor, partial curve]
O=S(=O)(Nc1ccccc1N1CCCCC1)c1cccs1	–	inconclusive [inhibitor, full curve]
Cc1ccc(/C=C2\SC(=S)N(CCC(=O)N3CCCCC3)C2=O)cc1	–	inconclusive [inhibitor, full curve, poor fit]
CN(C(=O)c1ccccc1OCc1ccc(Cl)cc1)c1ccccc1	–	inconclusive [inhibitor, partial curve]
COC(=O)c1ccc(C2C(C(=O)Nc3ccccc3C)=C(C)Nc3ncnn32)cc1 (configuration not stated)	–	inconclusive [inhibitor, partial curve]
Cc1ccc(S(=O)(=O)Nc2ccc(S(=O)(=O)Nc3nccs3)cc2)cc1C	–	inconclusive [inhibitor, partial curve]
COc1cc(C[C@H](C)[C@H](C)Cc2ccc3c(c2)OCO3)ccc1O	–	inconclusive [inhibitor, partial curve]
Cc1ccc(S(=O)(=O)n2cnc3ccccc32)cc1	inactive: -3.82%	–
COC(=O)C1=CN(c2ccc3c(c2)OCO3)C(N)=C(C#N)C1c1cccc(F)c1 (configuration not stated)	–	inconclusive [inhibitor, partial curve, poor fit]
CC1(C)CC2(CC(c3ccccc3)c3ccc(O)cc3O2)NC(=S)N1 (configuration not stated)	inactive: -15%	–
O=C(c1cccs1)N1C[C@@H](n2cc(C3CC3)nn2)[C@H](O)C[C@@H]1c1ccc(Cl)cc1	inactive: 6.45%	–
O=c1cnnc(SCc2ccc([N+](=O)[O-])cc2)[nH]1	–	inconclusive [inhibitor, single point]
O=C(/C=C/c1cc[n+](CC(=O)c2ccc3cccc4c3c2CC4)cc1)c1ccc2cccc3c2c1CC3	–	inconclusive [inhibitor, partial curve]
O=C(CSc1nc2ccccc2n1Cc1ccc(Cl)cc1)N/N=C/c1ccccc1C(=O)O	–	inconclusive [inhibitor, single point]
